About 65 (0.1%) of roughly 45,000 compounds were called active. The call rests on the fitted dose curve; in most records, active means well fitted activation curve with a large enough effect; inconclusive means small, poorly fitted or top-dose-only effect; inactive means no such curve, though single readings can be large or run the other way. This is one part of the list.
Potency means the concentration at half of the fitted maximal effect.

Chain of UniProt P54803 (P54803 whole entry, looked up): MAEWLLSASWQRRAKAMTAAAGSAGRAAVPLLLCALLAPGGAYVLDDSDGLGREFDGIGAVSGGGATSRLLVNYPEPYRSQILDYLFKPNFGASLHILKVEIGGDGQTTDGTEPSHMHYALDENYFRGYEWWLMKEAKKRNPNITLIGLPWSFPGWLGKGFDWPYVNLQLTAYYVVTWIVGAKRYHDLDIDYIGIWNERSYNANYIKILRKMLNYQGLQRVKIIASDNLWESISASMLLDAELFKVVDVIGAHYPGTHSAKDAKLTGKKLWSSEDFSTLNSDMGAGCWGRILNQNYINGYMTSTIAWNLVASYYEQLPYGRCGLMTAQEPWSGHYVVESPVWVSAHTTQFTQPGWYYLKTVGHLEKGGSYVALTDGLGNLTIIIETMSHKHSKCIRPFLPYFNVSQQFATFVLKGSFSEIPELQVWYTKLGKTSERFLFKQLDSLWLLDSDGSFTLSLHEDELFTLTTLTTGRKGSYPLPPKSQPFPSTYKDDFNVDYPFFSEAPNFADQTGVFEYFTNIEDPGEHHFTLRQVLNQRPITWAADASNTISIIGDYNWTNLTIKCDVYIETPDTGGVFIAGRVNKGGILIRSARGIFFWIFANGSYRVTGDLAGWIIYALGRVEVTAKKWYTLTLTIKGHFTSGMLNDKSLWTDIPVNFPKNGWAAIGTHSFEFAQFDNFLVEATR

The assay has as its target Galactocerebrosidase (Homo sapiens) (UniProt P54803). The assay is described as follows: A Novel Cell-Based Assay to Identify Small Molecules for B -Galactocerebrosidase. Further: nearly all actives have a fitted effect of over 65% in size. On activation: 0% is about no effect. The conditions noted are these: 145M-Twi-hGALC-G270D cells (Twitcher mouse brain line with human GALC G270D), HMU-beta-Gal fluorescence, 48 h; series mostly up to 57.5 µM; activation: at the top concentration. Summed up:
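Brain-derived Twitcher mouse 145M-Twi cells stably expressing human GALC-G270D or wild-type GALC, treated live, then residual GALC activity read by fluorescence of HMU-b-Gal substrate (0.1 mM final) in citrate-phosphate buffer pH 5.2 with sodium taurocholate. Signal increase indicates enhancement.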
Take `Cc1cccc(CCNC(=O)c2ccc3c(c2)nc2n3CCOC2)c1`: the “activation” value was inactive: -29.3%.
Take `COC(=O)c1ccc(NC(=O)c2cc(S(=O)(=O)N3CCC(C)CC3)cn2C)cc1`: the “activation” value is inactive: -31.5%.
On the same count and under the same terms, for `CCOC(=O)c1ccc(Nc2nc(N)c3cc(OC)c(OC)cc3n2)cc1` the value was inactive: -3.22%; for `Cc1ccc2[nH]c(CSc3nnc(NC(=O)COc4ccccc4C)s3)cc(=O)c2c1`, inactive: -2.09%; for `COc1ccc(Nc2cc(C(=O)NCCCN(C)c3ccccc3)c3ccccc3n2)c(OC)c1`, inactive: -17.5%.
On the same count and under the same terms, to `COc1ccc(CC(=O)Nc2ccc(-c3nc4ccccc4s3)cc2Cl)cc1OC` belongs inactive: 9.76%; to `CCCOCc1cc(CN2CCN(c3cccc(Cl)c3)CC2)c(O)c2ncccc12`, inactive: -10.6%; to `Cc1cccc(C)c1NC(=O)c1c(C)oc2c1C1=NCCN1C=N2`, inactive: -12.2%.
Same read-out and setting: for `CN1CCC[C@@H]1Cc1c[nH]c2ccc(CCS(=O)(=O)c3ccccc3)cc12` the value was inactive: -8.75%; for `Cc1nn(C)c2c1c(-c1ccccc1)cc(=O)n2C(C)C(=O)NCCc1ccc(Cl)cc1` (centres undefined), inactive: -13%; for `COc1ccc(C(=O)c2oc3ccccc3c2NC(=O)COc2cccc(C)c2)cc1`, inactive: -14.1%.
Regarding `CCN(CC)CCNC(=O)c1ccc2c(c1)NC(=O)C(CS(=O)(=O)Cc1ccc(F)cc1Cl)N2` (centres undefined), the “activation” value is inactive: 22.5%.
Still for that read-out and setting: to `CCn1cc(C(=O)NCCCN2CCC(C)CC2)c(=O)c2cc(S(=O)(=O)N(C)C3CCCCC3)ccc21` belongs inactive: -7.96%.
On the same count and under the same terms, to `COc1ccc(-c2ccc3c(N)c(C(=O)Nc4ccc(C)cc4C)sc3n2)cc1OC` belongs inactive: -10.1%; to `CC(C)c1nc2ccc(C(=O)NCc3ccc(F)cc3)cc2o1`, inactive: -11.4%.
The same measure, in the same setting: for `COc1ccc(S(=O)(=O)NCC(c2ccco2)N2CCN(c3ccccc3F)CC2)cc1OC` (centres undefined) the value was inactive: -13.9%; for `COc1ccc(-n2c(SCC(=O)Nc3cc(C)cc(C)c3)nc3c(oc4ccccc43)c2=O)cc1`, inactive: -12.2%.
Regarding `COc1ccccc1N1CCN(C(=O)c2nc(-c3ccc(C)cc3)n3c2CCCCC3)CC1`, the “activation” value is inactive: -12.5%.
Same read-out and setting: for `CCOc1ccc(-c2cc(NC(=O)c3c(F)cccc3F)c(C(=O)OC)s2)cc1` the value was inactive: -17.4%; for `CC1CCN(C(=O)c2ccccc2NC(=O)c2nsc3ccccc23)CC1`, inactive: -3.98%.
On the same count and under the same terms, for `CCc1cccc(NC(=O)C2CCCN2S(=O)(=O)c2ccc3c(c2)n(C)c(=O)c(=O)n3C)c1` (centres undefined) the value was inactive: -10.9%.
Same read-out and setting: to `Cc1cc(C)c(/C=C/c2onc(C)c2S(=O)(=O)N2CCC(C(=O)NCC(C)c3ccccc3)CC2)c(C)c1` (centres undefined) belongs inactive: -27.4%; to `CC(C)[N+](C)(CCOC(=O)C1c2ccccc2Oc2ccccc21)C(C)C`, inactive: -8.2%; to `Cc1cc(NC(=O)CC(C)C)cc(-c2nc3ncccc3o2)c1O`, inactive: 3.44%.
On to `Cc1ccc(Cl)cc1NC(=O)c1cnn2c(C(F)F)cc(-c3ccccc3)nc12`, for which the “activation” value is inactive: -9.85%.
Same read-out and setting: for `COc1ccc(NC(=O)c2cc(S(=O)(=O)N3CCCCC3)c[nH]2)cc1Cl` the value was inactive: -0.187%.
Same read-out and setting: for `COC(=O)c1c(NC(=O)C(C)Oc2ccc(Cl)cc2Cl)sc2c1CCCC2` (centres undefined) the value was inactive: -0.106%; for `CCOc1ccc2c(c1)[C@@H]1C=CC[C@@H]1[C@H](c1ccccc1Cl)N2`, inactive: -13.4%; for `Cc1ccc(CCNC(=O)CN2C(=O)COc3ccc(S(=O)(=O)N4CCCCC4)cc32)cc1`, inactive: -13.9%.
Still for that read-out and setting: to `Cc1ccc(Nc2nnc(-c3ccc(C)c(S(=O)(=O)N4CCCCC4)c3)c3ccccc23)cc1` belongs inactive: -5.21%; to `Cc1cccc(-c2nc3c(cnn3-c3ccccc3)c(=O)n2-c2cccc(Cl)c2)c1`, inactive: 4.68%.
As for `O=C(NCCc1ccccc1)c1ccc2c(c1)N(Cc1ccccc1)C(=O)c1ccccc1S2=O` (centres undefined), the “activation” value was inactive: -13.1%.
Same read-out and setting: for `Cc1ccc(CNC(C)c2ccccc2)s1` (centres undefined) the value was inactive: -8%; for `COc1ccc(OC)c(NCc2cccn2-c2nnc(N3CCC(C)CC3)s2)c1`, inactive: -19.5%; for `Cn1cnc2c(=O)oc3ccc(S(=O)(=O)N4CCN(c5ccccc5)CC4)cc3c21`, inactive: 0.292%.
`CC(C)(C)OC(=O)N1CCC(c2c(C(=O)Nc3cccc(C(F)(F)F)c3)cnn2-c2ccc(F)cc2F)CC1`: the “activation” value is inactive: 0.698%.
Regarding `Cc1cc(C)cc(NC(=O)CSc2nnc(COc3ccccc3Cl)o2)c1`, the “activation” value was inactive: -13.8%.
Same read-out and setting: to `Cc1ccc(C)c(NC(=O)CCCN2C(=O)COc3ccc(C)cc32)c1` belongs inactive: 12.2%.
Turning to `CCN(CC)S(=O)(=O)c1ccc2c(c1)c(=O)c(C(=O)N(C)Cc1ccccc1)cn2C`, the Potency was active: 25.1 µM.
For `O=C1CN(C(=O)c2ccc(Cl)cc2Cl)C(c2ccc(F)cc2)c2cc(F)ccc2N1` (centres undefined), the “activation” value was inactive: -8.47%.
Same read-out and setting: for `Cc1cc(OCC(=O)Nc2cnn(CCCC(=O)O)c2)ccc1Cl` the value was inactive: -11.1%; for `CN(C)c1ccc(C(CNC(=O)Cc2ccc(Cl)cc2)N2CCOCC2)cc1` (centres undefined), inactive: -13.1%.
On the same count and under the same terms, for `CCOC(=O)C1CCN(C(=O)CSc2n[nH]c(-c3ccccc3Cl)n2)CC1` the value was inactive: -4.83%.
Regarding `CC(=O)Nc1cc(C(=O)NCc2ccc(F)cc2)ccc1Sc1ccc(C)cc1`, the “activation” value was inactive: -2.99%.
On the same count and under the same terms, for `COc1ccc(C)cc1NC(=O)c1cc2c(s1)-c1ccccc1SC2` the value was inactive: -5.21%; for `CCOC(=O)CC(NC(=O)Cn1nnc(-c2ccc(C(F)(F)F)cc2)n1)c1ccccc1Cl` (centres undefined), inactive: -16.2%.
`Cc1nn(-c2ccccc2)c(-n2cccc2)c1C(=O)NCc1ccccc1Cl`: the “activation” value is inactive: -1.64%.
As for `CC1CCN(S(=O)(=O)c2ccc3ncn(CC(=O)Nc4ccccc4C(F)(F)F)c(=O)c3c2)CC1`, the “activation” value is inactive: 3.15%.
The same measure, in the same setting: to `Cc1ccc(NC(=O)Cn2c(=O)n(-c3ccc(C)cc3)c(=O)c3ccc(C(=O)NCc4ccccc4Cl)cc32)cc1` belongs inactive: -9.75%.

Values taken from PubChem BioAssay AID1159614 (National Center for Advancing Translational Sciences (NCATS), 2016).
